Source: PubChem BioAssay AID1345082 (National Center for Advancing Translational Sciences (NCATS), 2018)
Among all 94,000 compounds or so, about 4,000 (4.3%) were called active. Inconclusive means that the source gave no clear call. Such entries were picked first, then a sample of the others. Calls come from the whole dose curve; as a rule, active = well fitted inhibition curve with a large enough effect; inconclusive = small, poorly fitted or top-dose-only effect; inactive = no such curve, though single readings can be large or run the other way. Where the call is inconclusive, the potency comes from a doubtful curve fit.

assay: Cytotoxic Profiling in NIH 3T3 Cell Line of Diverse Libraries Using Quantitative High-Throughput Screening; details: NIH 3T3 viability, CellTiter-Glo ATP luminescence, 48-72 h; series mostly up to 96.7 µM; note: nearly all actives have a fitted effect of over 55% in size
In short: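 Viability of NIH 3T3 cells after 48 or 72 hr compound treatment at 37 °C was assessed by CellTiter-Glo, with luminescence imaged following a 10 min room-temperature step.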
Potency is the fitted concentration of half-maximal effect; tags give direction and shape of the fitted curve.

Structure (SMILES)	Potency
OC[C@@H]1CNC[C@H]1C1CCN(Cc2ccncc2F)CC1	inactive
CCOC(=O)[C@H]1C[C@]2(CCCCN(CCOC(C)=O)C2=O)N(C(=O)CC(C)C)[C@H]1c1ccco1	inactive
CN(C)CC(=O)N1CCC2(CC1)NCCc1c2[nH]c2ccccc12	inconclusive: 44.7 µM [inhibitor, partial curve, poor fit]
CCN(CC)C[C@H]1O[C@H](Cc2cc(-c3ccc(F)cc3)on2)CC[C@@H]1O	inconclusive: 89.1 µM [inhibitor, partial curve]
CCOc1cc(C(=O)N2CCC(Cc3nc(-c4ccc(F)cc4)no3)CC2)cc(OCC)c1OCC	active: 31.6 µM
COC1CCN(C(=O)Cn2c3c(c(=O)n2Cc2ccccc2)CCN(Cc2ccccc2)C3)CC1	inconclusive: 70.8 µM [inhibitor, single point]
Cc1cc(C)cc(-c2ccccc2C=O)c1	inconclusive: 126 µM [inhibitor, single point]
Cc1ccc(-c2cc(-c3cccnc3)nc3c(C)noc23)c(C)c1	inconclusive: 56.2 µM [inhibitor, partial curve, poor fit]
O=C(C1CC(=O)N(c2n[nH]c3cccc(F)c23)C1)N1CCc2ccccc2C1 (stereo not drawn)	inactive
COc1ccc(-c2ccc3c(c2)C(=O)N2CCN(C(=O)c4ccccc4)C[C@@H]2C(=O)N3)cc1	inconclusive: 56.2 µM [inhibitor, partial curve, poor fit]
O=C(NCCc1ccccc1)N1CCCC(Cn2c(C3CC3)nc3cccnc32)C1 (stereo not drawn)	inconclusive: 70.8 µM [inhibitor, single point]
O=C(c1ccc2[nH]ncc2c1)N1CCOCC12CCN(CCCc1ccccc1)CC2	inconclusive: 63.1 µM [inhibitor, partial curve, poor fit]
CCNC(=O)OC1CN(C(=O)c2cc3ccccc3s2)CCC(=O)N(C)c2ccccc21 (stereo not drawn)	inactive
COC(=O)N1CCN(CCCn2nc3n(c2=O)CCCC3)CC1	inactive
O=C(c1ccccc1Cl)N1CCC2(CC1)CC(=O)N(c1ccccc1)c1ccccc1O2	inconclusive: 39.8 µM [inhibitor, partial curve, poor fit]
COc1cccc(C(=O)N2CCC3(CC2)NC(=O)N(Cc2ccccc2)C3=O)c1OC	inactive
O=C(c1ccsc1)N1CCC(Oc2ccccc2-c2nc(C3CC3)no2)C1 (stereo not drawn)	inconclusive: 44.7 µM [inhibitor, partial curve, poor fit]
COc1ccccc1-c1ccc(C(=O)N2CCC(C(=O)NCc3cccc(F)c3)CC2)cc1	inconclusive: 44.7 µM [inhibitor, partial curve, poor fit]
